ChEMBL document CHEMBL4888484, “Replenishing the malaria drug discovery pipeline: Screening and hit evaluation of the MMV Hit Generation Library 1 (HGL1) against asexual blood stage Plasmodium falciparum ,using a nano luciferase reporter read-out” (2022)
In all, about 150,000 compounds went through this assay and about 540 (0.36%) showed an effect of 50% or more. The list shows a part of the results.

What follows are compounds tested on Plasmodium falciparum (assay: Primary screen in NF54 nanoGlo assay, in single point, at 2uM, 72h; a lower Z score goes with more inhibition). Conditions: timepoint 72 hour.
Type: functional, Erythrocyte
With `Cc1nc2c(c(N3C[C@H]4CN(C(=O)COC5CCCC5)C[C@@]4(C)C3)n1)CCCC2` the “% Inhibition” value was -1% and the Z score was 0.15.
For `CCn1cc(C(=O)Nc2cnn(CC)c2C(=O)N2CCOCC2)cn1`, the “% Inhibition” value was 2% and the Z score was -0.24.
With `CN(C(=O)c1coc2c1C(=O)NCC(C)(C)C2)C1(C(F)(F)F)CC1` the “% Inhibition” value was 0% and the Z score was 0.01.
For `O=C(NC1CCCCC1C(F)(F)F)c1cc[n+]([O-])cc1` (stereo not given), the “% Inhibition” value was 4% and the Z score was -0.66.
With `Cc1ccnc(NS(=O)(=O)c2cc(C(=O)N3CCCCCC3)cs2)c1` the “% Inhibition” value was 4% and the Z score was -0.49.
`C[C@@H](Cn1cnc(-c2ccccc2)c1-c1cnc(N)nc1)c1ccccc1` was tested, and the “% Inhibition” value was -4% and the Z score was 0.47.
`CCO[C@@H](C)c1nc(Cn2c(C)nn(C(C)C)c2=O)cs1` was tested, and the “% Inhibition” value was -17% and the Z score was 2.47.
`CCCCOc1ccc(C(=O)N2C[C@H](C(=O)NC)C3(CCCC3)C2)cc1` was tested, and the “% Inhibition” value was -5% and the Z score was 0.6.
For `Nc1nc(-c2ccccc2Cl)nn1C(=O)c1cccs1`, the “% Inhibition” value was -8% and the Z score was 1.25.
In the case of `Cn1ccnc1C(=O)N[C@H]1CCCN(C(=O)c2cccs2)C1`, the “% Inhibition” value is reported as -16% and the Z score is reported as 1.91.
In the case of `Cn1nccc1C(=O)N1CCC(N2C[C@H](Oc3ccccc3)[C@@H]2c2ccncc2)CC1`, the “% Inhibition” value is reported as -14% and the Z score is reported as 1.75.
For `CC(C)Cc1ccc(CCC(=O)N2CCc3nc[nH]c(=O)c3C2)cc1`, the “% Inhibition” value was -6% and the Z score was 0.78.
In the case of `C=C(C)CN(CC)C(=O)CC[C@H]1CCCO1`, the “% Inhibition” value is reported as 5% and the Z score is reported as -0.58.
`CC1CN(c2ccc(NC(=O)NCc3ccncc3)cc2)CC(C)O1` (stereo not given) was tested, and the “% Inhibition” value was -2% and the Z score was 0.24.
For `C=CCC[C@@H](CN1CCOCC1)Oc1ncc(Cl)cn1`, the “% Inhibition” value was 0% and the Z score was 0.09.
`Cc1ccc2oc(N3CCNC(=O)[C@@H]3C(C)C)nc2c1` was tested, and the “% Inhibition” value was 13% and the Z score was -2.05.
In the case of `Cc1cc(C)c2c(C(=O)N3CCCC[C@@H]3CCN)cc(C3CC3)nc2c1`, the “% Inhibition” value is reported as -14% and the Z score is reported as 1.57.
With `Cc1cc(C(=O)N(CCN2CCOCC2)Cc2ccco2)cc(=O)[nH]1` the “% Inhibition” value was -4% and the Z score was 0.46.
For `CCOC1CC(N(C)C(=O)c2cnc[nH]2)C1(CC)CC` (stereo not given), the “% Inhibition” value was 0% and the Z score was 0.01.
In the case of `Cc1ccc(NC(=O)Nc2cc(C)c3nc(NS(=O)(=O)c4ccccc4)sc3c2)cc1`, the “% Inhibition” value is reported as 35% and the Z score is reported as -3.95.
With `O=C(NCc1ccccn1)C1CN(C(=O)c2c[nH]c3ccccc23)C1` the “% Inhibition” value was -12% and the Z score was 1.35.
`N#CC1CN(C(=O)NC2CCC3CCCCC3C2)CCO1` (stereo not given) was tested, and the “% Inhibition” value was -5% and the Z score was 0.94.
`Cc1ccc(CCNC(=O)[C@H](C)n2nc(C)c3c(C)n(-c4ccc(C)cc4)nc3c2=O)cc1` was tested, and the “% Inhibition” value was 19% and the Z score was -2.17.
`O=C(CCc1nc2ccccc2[nH]1)N1CCN(c2ccccn2)CC1` was tested, and the “% Inhibition” value was 31% and the Z score was -0.27.
With `c1ccc(-n2ncc3c(N4CC[C@H](c5ccccn5)C4)ncnc32)cc1` the “% Inhibition” value was -4% and the Z score was 0.75.
In the case of `CO[C@H]1CN(c2cc(C(C)C)nc(C)n2)CC[C@H]1N`, the “% Inhibition” value is reported as -12% and the Z score is reported as 2.11.
With `Cc1cc(C(=O)N2CCC[C@@H](NC(=O)c3ccn(C(C)C)n3)C2)on1` the “% Inhibition” value was -2% and the Z score was 0.31.
With `CN(C)c1nc(N2CCN(c3ccc(F)cc3)CC2)nc2c1CN(C(=O)Cc1ccccc1)CC2` the “% Inhibition” value was -6% and the Z score was 1.15.
`Cc1noc2nc(C3CC3)cc(C(=O)N3CCc4n[nH]cc4C3)c12` was tested, and the “% Inhibition” value was -5% and the Z score was 0.91.
For `Cc1noc(C)c1C(=O)N[C@@H](C)COc1ccc(F)cc1F`, the “% Inhibition” value was -12% and the Z score was 1.05.
With `CCc1nc(CN2CC(Oc3cccc(Cl)c3)C2)no1` the “% Inhibition” value was -8% and the Z score was 1.18.
With `O=C(c1n[nH]c2ccccc12)N1CCCN(S(=O)(=O)N2CCCC2)CC1` the “% Inhibition” value was -8% and the Z score was 1.72.
In the case of `Cn1cc(C(=O)NC[C@]2(O)CCCc3occc32)nn1`, the “% Inhibition” value is reported as -12% and the Z score is reported as 1.77.
For `O=C(CN1CCOCC1)Nc1nc(CN2CCCCCC2)cs1`, the “% Inhibition” value was -4% and the Z score was 0.54.
With `CC(C)N(Cc1ccc(C#N)cc1)C(=O)COC[C@H]1CCCO1` the “% Inhibition” value was -5% and the Z score was 0.63.
With `O=C(NC1CCCC1)N1CCN(c2nc3cccnc3n(Cc3ccccc3)c2=O)CC1` the “% Inhibition” value was 34% and the Z score was -0.75.
For `O=C(CCCc1ccccc1)N1C2CCCC1CN(Cc1ccccc1)C2`, the “% Inhibition” value was -12% and the Z score was 2.32.
`Cc1ccc(-c2n[nH]c3c2cnc2ccc(C)cc23)cc1` was tested, and the “% Inhibition” value was -5% and the Z score was 0.82.
`CCN1CC[C@H](CN(CC)S(=O)(=O)c2cc(C)sc2C)C1` was tested, and the “% Inhibition” value was -10% and the Z score was 1.95.
For `CCc1sc(N(C(=O)Cc2ccccc2)c2ccc(C)cc2C)nc1-c1ccc(Cl)cc1`, the “% Inhibition” value was 37% and the Z score was -1.16.
`O=C(Cn1cnc2c(cnn2-c2ccc(F)cc2)c1=O)N1CCN(C(=O)c2ccco2)CC1` was tested, and the “% Inhibition” value was -11% and the Z score was 1.28.
With `Cc1cnn(CCCn2ncc(N(C)C)cc2=O)c1` the “% Inhibition” value was -15% and the Z score was 2.62.
For `O=C(Nc1cccc(Cl)c1)N1CCOC[C@H]1c1nc(-c2cccs2)no1`, the “% Inhibition” value was 11% and the Z score was -1.46.
In the case of `Cc1nc2ccccn2c1CN(C)Cc1cnc(N(C)C)nc1`, the “% Inhibition” value is reported as -5% and the Z score is reported as 0.69.
For `Cc1ccc(-c2cn[nH]c2[C@H]2CCCN(C(=O)c3ncccc3O)C2)cc1`, the “% Inhibition” value was -11% and the Z score was 1.37.
For `c1ccc(Nc2ccc(N3CCCC3)nn2)cc1`, the “% Inhibition” value was 0% and the Z score was -0.05.
For `CCCc1nc(N2CCN(CC(C)C)CC2)no1`, the “% Inhibition” value was -17% and the Z score was 3.6.
With `CC1CN(C(=O)c2ccccc2OC2CC2)CC(C)S1(=O)=O` (stereo not given) the “% Inhibition” value was -3% and the Z score was 0.49.
`Cc1noc2ncnc(N(C)Cc3cccc(OC(C)C)c3)c12` was tested, and the “% Inhibition” value was -9% and the Z score was 1.26.
For `CCN1C[C@@H](C(=O)O)C[C@@H](C(=O)Nc2ccc(F)cc2)C1`, the “% Inhibition” value was -2% and the Z score was 0.19.
With `Cc1cccc(CN2CCC[C@H](CNC(=O)c3cccc(C(F)(F)F)c3)C2)n1` the “% Inhibition” value was -5% and the Z score was 0.91.
`Cn1ccnc1CN[C@@](C)(CO)C1CCCCC1` was tested, and the “% Inhibition” value was -16% and the Z score was 2.94.
With `O=C(NC1CCN(c2ccccc2C(=O)N2CCOCC2)CC1)c1cc(F)cc(F)c1` the “% Inhibition” value was -15% and the Z score was 1.44.
`Cc1nn(-c2cnc(N)cn2)c(C)c1Cc1ccccc1` was tested, and the “% Inhibition” value was -7% and the Z score was 0.91.
For `CC(C)Cc1cc(CN2CCC[C@@](CO)(CCc3ccccc3)C2)n[nH]1`, the “% Inhibition” value was 0% and the Z score was -0.05.
With `CN1N=C(C(=O)Nc2ccc(NCc3ccccc3)c(Cl)c2)CCC1=O` the “% Inhibition” value was -11% and the Z score was 1.99.
In the case of `O=C(c1cc(-c2ccccc2)on1)N1CCn2nc(C3CC3)cc2C1`, the “% Inhibition” value is reported as 11% and the Z score is reported as -1.36.
In the case of `O=C(CCc1cc2n(n1)CCN(Cc1cc3ccccc3o1)C2)NCCO`, the “% Inhibition” value is reported as -6% and the Z score is reported as 1.17.
With `COC(=O)[C@@H](c1ccccc1)N1CCC2(CC1)CC(=O)N(CC(C)C)C2` the “% Inhibition” value was -9% and the Z score was 1.31.
For `O=C(NC1CCC2OCCOC2C1)c1cccnc1` (stereo not given), the “% Inhibition” value was -6% and the Z score was 1.05.
`COc1ccc(Oc2nonc2N)cc1` was tested, and the “% Inhibition” value was 6% and the Z score was -0.78.
In the case of `C[C@H]1CN(CC(=O)N(C)CC2CC2)CCS1(=O)=O`, the “% Inhibition” value is reported as -4% and the Z score is reported as 0.74.
For `CC(C)c1cnc(NC(=O)NC2(C)CCCC2)s1`, the “% Inhibition” value was -17% and the Z score was 1.85.
`CC(=O)N1CCN(CCNC2=NS(=O)(=O)c3ccccc32)CC1` was tested, and the “% Inhibition” value was 38% and the Z score was -3.85.
For `CCC(C)C(C)(O)CNS(=O)(=O)c1cnn(C)c1` (stereo not given), the “% Inhibition” value was -5% and the Z score was 0.72.
With `CCCCn1c(N)c(N2CCOCC2)c(=O)n(CC(=O)Nc2ccc3c(c2)OCCCO3)c1=O` the “% Inhibition” value was 7% and the Z score was -0.77.
`O=C(OCc1cccc(Cl)c1)c1cccc(-n2cnnn2)c1` was tested, and the “% Inhibition” value was -50% and the Z score was 5.82.
`C[C@H](NC(=O)Cn1ccccc1=O)c1nnc2n1CCCCC2` was tested, and the “% Inhibition” value was -3% and the Z score was 0.32.
`CCC1CCC(CNC(=O)N(C)C[C@H]2CCN(C)C2)CC1` (stereo not given in full) was tested, and the “% Inhibition” value was -12% and the Z score was 1.83.
`COc1ccc(Cn2cc([C@H](CC(=O)N3CCCC3)c3ccc(F)cc3)c3ccccc32)cc1` was tested, and the “% Inhibition” value was -8% and the Z score was 1.05.
In the case of `Cc1nc(CCNC(=O)NC2CCCC2)cs1`, the “% Inhibition” value is reported as 5% and the Z score is reported as -0.43.
With `Cc1ccc(C2=NC3(CCC(C(C)(C)C)CC3)NC2=O)cc1` (stereo not given) the “% Inhibition” value was -13% and the Z score was 1.48.
For `O=C(NCC1CC1)c1nn(-c2cccc(Cl)c2)c(=O)n(Cc2ccccc2F)c1=O`, the “% Inhibition” value was -16% and the Z score was 2.47.
For `CCC1([C@@](O)(C#CCN2CCCCCC2)c2ccccc2)CCCC1`, the “% Inhibition” value was -16% and the Z score was 1.41.
With `O=c1[nH]c2cccc(N3CCN(C[C@H]4COCCO4)CC3)c2[nH]1` the “% Inhibition” value was 7% and the Z score was -0.73.
`N#Cc1ccc(O)c(NC(=O)c2cccc(-n3cccn3)n2)c1` was tested, and the “% Inhibition” value was -4% and the Z score was 0.57.
`CCCCc1nc(N2CCCN(C(=O)NCc3ccccc3)CC2)c2c(-c3ccccc3)noc2n1` was tested, and the “% Inhibition” value was 7% and the Z score was -0.71.
For `C#Cc1cccc(N(Cc2cccs2)Cc2ncnn2C)c1`, the “% Inhibition” value was 5% and the Z score was -1.01.
With `OCCOc1cccc(CN2CCO[C@H]3CCCC[C@@H]32)c1` the “% Inhibition” value was -3% and the Z score was 0.43.
In the case of `COc1ccncc1CNC(=O)N1CCC[C@H](C2CCCC2)C1`, the “% Inhibition” value is reported as 1% and the Z score is reported as -0.06.
With `COc1ccc([C@H]2N(c3ccc(OC)cc3)C(=O)[C@@H]3CCCN32)cc1` the “% Inhibition” value was -7% and the Z score was 0.98.
In the case of `O=C(CN1CCOCC1)N1CCCC[C@@H]1CCc1ccccc1`, the “% Inhibition” value is reported as -9% and the Z score is reported as 1.71.
In the case of `CC(C)(CNCC1(CO)CC1)c1ccccc1`, the “% Inhibition” value is reported as 1% and the Z score is reported as -0.08.
`O=C(c1cn(C[C@H]2CCCO2)nn1)N1CCCCCCC1` was tested, and the “% Inhibition” value was -11% and the Z score was 1.01.
With `CC(C)CC(C)S(=O)(=O)NC(=O)C1Cc2ccccc21` (stereo not given) the “% Inhibition” value was -7% and the Z score was 0.55.
